Assay results taken from the BET-seq Pho4 binding data (Le et al. 2018).
The list shows a part of the results. Values were computed here from the reads of four pooled replicates and scatter widely.

These sequences were tested against T1, Pho4 (S. cerevisiae) (UniProt P07270) (assay: relative binding free energy (BET-seq); higher = weaker binding). Conditions: reference: library average.
T1 sequence: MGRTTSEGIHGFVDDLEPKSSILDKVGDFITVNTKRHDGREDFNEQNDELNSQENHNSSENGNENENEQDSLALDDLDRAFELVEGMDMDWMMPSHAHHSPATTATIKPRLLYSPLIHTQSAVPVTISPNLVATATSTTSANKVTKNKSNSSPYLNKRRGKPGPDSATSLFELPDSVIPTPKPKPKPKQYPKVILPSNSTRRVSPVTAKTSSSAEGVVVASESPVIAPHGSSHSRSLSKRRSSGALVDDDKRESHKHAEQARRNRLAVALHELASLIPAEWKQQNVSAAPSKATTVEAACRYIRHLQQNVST

Row | Sequence | relative binding free energy [kcal/mol]
1 | CGGAGCACGTGGGGGA | -0.36
2 | GCTTTCACGTGGTGCG | 0.21
3 | TGGGACACGTGAGTCG | 0.36
4 | CGGTGCACGTGTTAGG | -0.02
5 | CGGGTCACGTGGTTAA | 0.08
6 | TAAGGCACGTGAGTCG | 0.08
7 | GAATTCACGTGTGTGA | 0.29
8 | GTCTGCACGTGTAGTT | 0.08
9 | TGGGGCACGTGGCAGG | -0.19
10 | TGGTGCACGTGGTCTG | -0.13
11 | TCTGGCACGTGGGAGT | -0.03
12 | TTAGACACGTGGCGTA | -0.09
13 | GGTGTCACGTGTCAGG | 0.12
14 | ATTTTCACGTGGTGCG | 0.19
15 | TCAAGCACGTGGGGAT | -0.08
16 | AAAGTCACGTGTTAGA | 0.21
17 | AATGACACGTGAAGGG | 0.28
18 | TGGGGCACGTGGGAAG | -0.15
19 | AAAGACACGTGTTATG | 0.19
20 | TTGGGCACGTGATATC | -0.08
21 | TGATGCACGTGCGGGT | -0.04
22 | TTGGTCACGTGTCGTC | -0.01
23 | AGCTGCACGTGTGAAG | 0.01

Row | Sequence | relative binding free energy [kcal/mol]
24 | GTTTGCACGTGGGGGC | -0.03
25 | GGTTACACGTGGAAAG | 0.32
26 | CGAAGCACGTGTTTAG | 0.1
27 | AATGTCACGTGCAGGG | 0
28 | AAGTGCACGTGAAGTG | 0.12
29 | AAGTTCACGTGTTCTT | 0.16
30 | AGGTACACGTGGGGTA | -0.14
31 | TGTGTCACGTGCTGGA | 0.05
32 | AGGAGCACGTGTTTTG | -0.06
33 | TGTGACACGTGGGGCG | -0.18
34 | ATTGGCACGTGATGTA | 0.03
35 | AGGCTCACGTGAATGG | 0.35
36 | GCCTTCACGTGTTGGG | 0.24
37 | TGGGTCACGTGGCTTA | 0.17
38 | CAGTACACGTGAGGGA | 0.47
39 | ATTATCACGTGGAGTT | 0.2
40 | TGCGGCACGTGAGATG | 0.18
41 | TGGCACACGTGGGAGC | 0.04
42 | AATGTCACGTGGTAGT | 0.1
43 | TCTTGCACGTGTTTTG | 0.05
44 | TGGGCCACGTGTAATT | 0.26
45 | TGGTACACGTGAGCTG | 0.29
46 | GATAACACGTGTGTGA | 0.08

Row | Sequence | relative binding free energy [kcal/mol]
47 | GTTTGCACGTGAAGAA | 0.2
48 | AGTTTCACGTGCAGTA | 0.16
49 | GGAGACACGTGTGCTG | 0.02
50 | GGCGTCACGTGTGTTT | 0.13
51 | GTGACCACGTGTGGGA | 0.18
52 | AGTGGCACGTGGAAGT | -0.12
53 | GCGTTCACGTGTTGGT | 0.34
54 | GTCGGCACGTGTGGCG | 0.07
55 | AGATTCACGTGCGTTT | 0.26
56 | ATATCCACGTGGAGTG | -0.03
57 | TAACTCACGTGGGTTT | -0.04
58 | GGCGTCACGTGAGGAA | 0.33
59 | CGTATCACGTGAGGGA | 0.18
60 | TTGGGCACGTGTTCGC | -0.09
61 | TCAATCACGTGGGTTG | 0.05
62 | AATTGCACGTGTCAGG | 0.07
63 | ATATACACGTGCTTGG | -0.01
64 | CTTGGCACGTGATTGG | 0.04
65 | CTTGCCACGTGGGCGG | -0.27
66 | ATGATCACGTGGTCAT | 0.11
67 | GGTGTCACGTGTGGGG | 0.16
68 | GTTGTCACGTGGGCAA | 0.04
69 | ATTGACACGTGTATAT | 0

Row | Sequence | relative binding free energy [kcal/mol]
70 | TGTAGCACGTGGTCCG | -0.08
71 | TTTCGCACGTGTGTAA | -0.09
72 | GTAAACACGTGGTGCG | -0.07
73 | GTATGCACGTGTATAT | 0.1
74 | TCATTCACGTGTTTGC | 0.2
75 | AAGAACACGTGAGGTG | 0.27
76 | GGGAACACGTGTTAAG | 0.15
77 | TGCCGCACGTGGGGGT | -0.29
78 | TTCAGCACGTGTAAGT | -0.08
79 | CATAGCACGTGGTTTG | -0.12
80 | ATATGCACGTGTGGTA | 0.04
81 | ATCGACACGTGGTTGG | -0.08
82 | TTGTGCACGTGCGTCG | -0.05
83 | TCTGGCACGTGTGTAG | -0.04
84 | CTTTTCACGTGAGTCT | 0.43
85 | TCTAACACGTGGTAGG | 0
86 | CTATTCACGTGTAGGT | 0.14
87 | TGGGACACGTGGGGAT | -0.1
88 | TTCGGCACGTGCGTTT | -0.16
89 | GCTGACACGTGAAGTG | 0.45
90 | GATTCCACGTGTATGT | 0.18
91 | AATAGCACGTGAGGCT | 0.24
92 | TGCTTCACGTGCGAGT | 0.28

Row | Sequence | relative binding free energy [kcal/mol]
93 | TTTTGCACGTGTAGCG | 0.09
94 | AGTGACACGTGCTGGA | -0.15
95 | TATCCCACGTGTGGGG | -0.05
96 | TGTCTCACGTGGGAAT | 0.3
97 | ACTAGCACGTGTGTGG | -0.02
98 | CTTTGCACGTGGTCTG | -0.14
99 | CGGAGCACGTGGGTAG | -0.34
100 | TCGTACACGTGTTGGT | 0.15
101 | GGGTTCACGTGAAGGT | 0.42
102 | TATAGCACGTGTTGTT | -0.05
103 | GTAAACACGTGTTGGG | 0.1
104 | GGGGTCACGTGGCGTC | -0.05
105 | TGTGTCACGTGAACTA | 0.24
106 | ACAAGCACGTGGTATG | -0.1
107 | ATGTGCACGTGGTTTG | -0.06
108 | TGCGGCACGTGTGTTG | -0.06
109 | CGGCGCACGTGGTAGT | -0.12
110 | TTTAGCACGTGCTGGG | -0.14
111 | TTGGGCACGTGTAGCG | 0
112 | AGTGGCACGTGGGTCA | -0.19
113 | GTTTTCACGTGGTAAC | 0.3
114 | TGGTTCACGTGTTGTG | 0.17
115 | CTATGCACGTGTATTT | -0.12
